# Laboratory results reported in the supplement of paper PMC8728848.
# Some of the results follow.
# B1: RfpB (Mycobacterium tuberculosum), O05594 (protein)
# chain: MAAGLVTASMSLSTAVAHAGPSPNWDAVAQCESGGNWAANTGNGKYGGLQFKPATWAAFGGVGNPAAASREQQIAVANRVLAEQGLDAWPTCGAASGLPIALWSKPAQGIKHAGPSPNWDAVAQCESGGNWAANTGNGKYGGLQFKPATWAAFGGVGNPAAASREQQIAVANRVLAEQGLDAWPTCGA
# What was measured:
# Assay in all cases: glycan array binding signal (z-score within array); higher = stronger binding
# Settings in all cases: glycan notation: IUPAC condensed, linker removed
# Fuc(a1-2)Gal = target: Fuc(a1-2)Gal
# How it was run: (§1)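 The binding signal is a Z-score computed within each array and averaged over linkers. Arrays of the same protein sequence at different concentrations or buffers were also averaged together. Data originate from 3228 arrays in the Consortium for Functional Glycomics database, kept only where the protein sequence was available.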
# Fuc(a1-2)Gal(b1-3)GalNAc = target: Fuc(a1-2)Gal(b1-3)GalNAc
# How it was run: as §1
# [1] = target: Fuc(a1-2)Gal(b1-3)GalNAc(b1-3)Gal
# How it was run: as §1
# [2] = target: Fuc(a1-2)Gal(b1-3)GalNAc(b1-3)Gal(a1-4)Gal(b1-4)Glc
# How it was run: as §1
# [3] = target: Fuc(a1-2)Gal(b1-3)GalNAc(b1-4)[Neu5Ac(a2-3)]Gal(b1-4)Glc
# How it was run: as §1
# Fuc(a1-2)Gal(b1-3)GlcNAc = target: Fuc(a1-2)Gal(b1-3)GlcNAc
# How it was run: as §1
# [4] = target: Fuc(a1-2)Gal(b1-3)GlcNAc(b1-3)Gal(b1-4)Glc
# How it was run: as §1
# [5] = target: Fuc(a1-2)Gal(b1-3)[Fuc(a1-4)]GlcNAc
# How it was run: as §1
# Fuc(a1-2)Gal(b1-4)Glc = target: Fuc(a1-2)Gal(b1-4)Glc
# How it was run: as §1
# Fuc(a1-2)Gal(b1-4)Glc6S = target: Fuc(a1-2)Gal(b1-4)Glc6S
# How it was run: as §1
# Fuc(a1-2)Gal(b1-4)GlcNAc = target: Fuc(a1-2)Gal(b1-4)GlcNAc
# How it was run: as §1
# [6] = target: Fuc(a1-2)Gal(b1-4)GlcNAc(b1-2)Man(a1-3)[Fuc(a1-2)Gal(b1-4)GlcNAc(b1-2)Man(a1-6)]Man(b1-4)GlcNAc(b1-4)GlcNAc
# How it was run: as §1
# [7] = target: Fuc(a1-2)Gal(b1-4)GlcNAc(b1-2)Man(a1-6)[Gal(b1-4)GlcNAc(b1-2)Man(a1-3)]Man(b1-4)GlcNAc(b1-4)GlcNAc
# How it was run: as §1
# [8] = target: Fuc(a1-2)Gal(b1-4)GlcNAc(b1-3)Gal(b1-4)GlcNAc
# How it was run: as §1
# [9] = target: Fuc(a1-2)Gal(b1-4)GlcNAc(b1-3)Gal(b1-4)GlcNAc(b1-3)Gal(b1-4)GlcNAc
# How it was run: as §1
# [10] = target: Fuc(a1-2)Gal(b1-4)GlcNAc6S
# How it was run: as §1
# [11] = target: Fuc(a1-2)Gal(b1-4)[Fuc(a1-3)]GlcNAc
# How it was run: as §1
# [12] = target: Fuc(a1-2)Gal(b1-4)[Fuc(a1-3)]GlcNAc(b1-3)Gal(b1-4)[Fuc(a1-3)]GlcNAc
# How it was run: as §1
# [13] = target: Fuc(a1-2)Gal(b1-4)[Fuc(a1-3)]GlcNAc(b1-3)Gal(b1-4)[Fuc(a1-3)]GlcNAc(b1-3)Gal(b1-4)[Fuc(a1-3)]GlcNAc
# How it was run: as §1
# Fuc(a1-2)Gal6S(b1-4)Glc = target: Fuc(a1-2)Gal6S(b1-4)Glc
# How it was run: as §1
# [14] = target: Fuc(a1-2)Gal6S(b1-4)Glc6S
# How it was run: as §1
# [15] = target: Fuc(a1-2)Gal6S(b1-4)GlcNAc
# How it was run: as §1
# Fuc(a1-2)[Gal(a1-3)]Gal = target: Fuc(a1-2)[Gal(a1-3)]Gal
# How it was run: as §1
# [16] = target: Fuc(a1-2)[Gal(a1-3)]Gal(b1-3)GlcNAc
# How it was run: as §1
# [17] = target: Fuc(a1-2)[Gal(a1-3)]Gal(b1-4)Glc
# How it was run: as §1
# [18] = target: Fuc(a1-2)[Gal(a1-3)]Gal(b1-4)GlcNAc
# How it was run: as §1
# [19] = target: Fuc(a1-2)[Gal(a1-3)]Gal(b1-4)[Fuc(a1-3)]GlcNAc
# How it was run: as §1
# [20] = target: Fuc(a1-2)[Gal(a1-4)]Gal(b1-4)GlcNAc
# How it was run: as §1
# [21] = target: Fuc(a1-2)[GalNAc(a1-3)]Gal
# How it was run: as §1
# [22] = target: Fuc(a1-2)[GalNAc(a1-3)]Gal(b1-3)GlcNAc
# How it was run: as §1
binder,measurement,setting,value
B1,glycan array binding signal (z-score),Fuc(a1-2)Gal,-0.233
same,glycan array binding signal (z-score),Fuc(a1-2)Gal(b1-3)GalNAc,-0.406
same,glycan array binding signal (z-score),[1],-0.157
same,glycan array binding signal (z-score),[2],-0.482
same,glycan array binding signal (z-score),[3],-0.348
same,glycan array binding signal (z-score),Fuc(a1-2)Gal(b1-3)GlcNAc,0.352
same,glycan array binding signal (z-score),[4],0.242
same,glycan array binding signal (z-score),[5],-0.637
same,glycan array binding signal (z-score),Fuc(a1-2)Gal(b1-4)Glc,0.119
same,glycan array binding signal (z-score),Fuc(a1-2)Gal(b1-4)Glc6S,0.347
same,glycan array binding signal (z-score),Fuc(a1-2)Gal(b1-4)GlcNAc,-0.322
same,glycan array binding signal (z-score),[6],-0.692
same,glycan array binding signal (z-score),[7],1.16
same,glycan array binding signal (z-score),[8],-0.41
same,glycan array binding signal (z-score),[9],0.003
same,glycan array binding signal (z-score),[10],1.15
same,glycan array binding signal (z-score),[11],-0.217
same,glycan array binding signal (z-score),[12],-0.487
same,glycan array binding signal (z-score),[13],-0.564
same,glycan array binding signal (z-score),Fuc(a1-2)Gal6S(b1-4)Glc,0.9
same,glycan array binding signal (z-score),[14],1.14
same,glycan array binding signal (z-score),[15],-0.188
same,glycan array binding signal (z-score),Fuc(a1-2)[Gal(a1-3)]Gal,0.278
same,glycan array binding signal (z-score),[16],-0.591
same,glycan array binding signal (z-score),[17],0.337
same,glycan array binding signal (z-score),[18],0.359
same,glycan array binding signal (z-score),[19],-0.47
same,glycan array binding signal (z-score),[20],0.094
same,glycan array binding signal (z-score),[21],0.323
same,glycan array binding signal (z-score),[22],-0.544
